Some of the results follow. The energies were worked out here from pooled read counts, against the library average; single values are noisy.

The assay has as its target T1, Pho4 (S. cerevisiae) (UniProt P07270).
T1 sequence: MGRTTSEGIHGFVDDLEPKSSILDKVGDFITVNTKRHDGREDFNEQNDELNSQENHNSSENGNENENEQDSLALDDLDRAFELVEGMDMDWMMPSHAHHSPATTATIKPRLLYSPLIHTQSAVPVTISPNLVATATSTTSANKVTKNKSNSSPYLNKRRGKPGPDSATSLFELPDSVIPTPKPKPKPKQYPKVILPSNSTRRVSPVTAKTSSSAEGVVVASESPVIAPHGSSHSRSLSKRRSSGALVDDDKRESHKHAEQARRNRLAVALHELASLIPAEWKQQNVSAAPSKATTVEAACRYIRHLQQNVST
Put plainly: relative binding free energy (BET-seq); higher = weaker binding. The conditions noted are these: reference: library average.
As for GTTGACACGTGGTTTT, the “relative binding free energy” value worked out at 0.1 kcal/mol.
Next, TGGATCACGTGTTTGG: 0.27 kcal/mol; GCAATCACGTGATTGG: 0.36 kcal/mol; ATTGCCACGTGTTTAA: 0.1 kcal/mol.
With GCGCTCACGTGTGGTA, the “relative binding free energy” value stood at 0.35 kcal/mol.
As for ATCGGCACGTGGTGTT, the “relative binding free energy” value is -0.32 kcal/mol.
As to GTCGACACGTGTAAGT, the “relative binding free energy” value came to 0.27 kcal/mol.
As for GGATTCACGTGTGACT, the “relative binding free energy” value was found to be 0.52 kcal/mol.
With TGGATCACGTGAAGGG the figure was 0.23 kcal/mol; with GAGAGCACGTGGAGAG, 0.07 kcal/mol; with GGACACACGTGGGGCG, -0.12 kcal/mol.
For the sequence CGGAGCACGTGTGTTG, the “relative binding free energy” value is -0.07 kcal/mol.
With GGAGTCACGTGTGAAA, the “relative binding free energy” value worked out at 0.2 kcal/mol.
Next, TTTATCACGTGTTTTG: 0.11 kcal/mol; TATTGCACGTGTGAGT: 0.02 kcal/mol; GTTTACACGTGGGCAG: 0.1 kcal/mol.
Next, GGGATCACGTGTTGTC: 0.25 kcal/mol; GTGTTCACGTGTTTCT: 0.22 kcal/mol; GTGCGCACGTGGAGGA: -0.14 kcal/mol.
As to ATGTGCACGTGGTTTT, the “relative binding free energy” value is -0.06 kcal/mol.
Next, CGTTGCACGTGAGGTC: 0.24 kcal/mol; CGTTTCACGTGTGGGC: 0.36 kcal/mol; TCAGGCACGTGATAGT: -0.02 kcal/mol.
As to AAGCTCACGTGTGGTA, the “relative binding free energy” value was 0.19 kcal/mol.
Take GTGCTCACGTGTGTAA: the “relative binding free energy” value was 0.34 kcal/mol.
For AGAAACACGTGATGGT, the “relative binding free energy” value worked out at 0.08 kcal/mol.
With AATGTCACGTGGAGAT the figure was 0.11 kcal/mol.
With AGTGTCACGTGTTGTG the figure was 0.12 kcal/mol; with TCTATCACGTGTGTTA, 0.16 kcal/mol; with ATAAACACGTGTTTGA, -0.14 kcal/mol.
Next, GGATGCACGTGTACTG: -0.01 kcal/mol; TGGGACACGTGGGTAG: -0.01 kcal/mol.
On to TGTGACACGTGTTAGG, for which the “relative binding free energy” value is 0.06 kcal/mol.
With GTAGACACGTGTCTGT the figure was 0.06 kcal/mol; with TAAGTCACGTGTAGAA, 0.11 kcal/mol.
With CGTATCACGTGTGAGT the figure was 0.29 kcal/mol; with TGGGGCACGTGGTTGA, -0.06 kcal/mol; with AGTGGCACGTGTAGTT, -0.02 kcal/mol.
With TAAGACACGTGTGTAG the figure was 0.13 kcal/mol; with AGTTGCACGTGGGGAT, -0.02 kcal/mol; with CTTGACACGTGCGCGG, 0.03 kcal/mol.
Consider AGGGACACGTGGAGGT, for which the “relative binding free energy” value turned out to be 0.01 kcal/mol.
Next, AGGTCCACGTGGGTTT: -0.31 kcal/mol; GTTTGCACGTGTTAGC: 0.15 kcal/mol.
In the case of CGTGGCACGTGTTATG, the “relative binding free energy” value was -0.15 kcal/mol.
On to ACTGACACGTGGGAGG, for which the “relative binding free energy” value is -0.08 kcal/mol.
With CTCTGCACGTGGTGTA the figure was -0.1 kcal/mol.
With AGGGGCACGTGTCTGG the figure was -0.04 kcal/mol.
Consider CTCGTCACGTGGAGTA, for which the “relative binding free energy” value came to 0.23 kcal/mol.
Next, TTTAGCACGTGTAGAC: 0.03 kcal/mol; TGCATCACGTGTTTTG: 0.12 kcal/mol; AAGAACACGTGGTGTA: -0.04 kcal/mol.
Next, GGGTCCACGTGTGGGT: 0.1 kcal/mol; TTTGTCACGTGGAGAG: 0.15 kcal/mol.
Next, GTTGACACGTGCCGGG: -0.06 kcal/mol; TTGTCCACGTGGTTGT: -0.01 kcal/mol.
For the sequence CTGCACACGTGGGTGT, the “relative binding free energy” value is -0.15 kcal/mol.
As to GATGACACGTGGTAGT, the “relative binding free energy” value was determined as 0.2 kcal/mol.
Next, AGGTTCACGTGGGGCA: 0.15 kcal/mol.
Next, GGGCTCACGTGGTAGC: 0.3 kcal/mol; GTGGCCACGTGCAGTG: -0.07 kcal/mol.
With TATTGCACGTGGTCTG the figure was -0.23 kcal/mol; with TAGAACACGTGGGCTG, -0.06 kcal/mol.
Turning to AGTATCACGTGACTGT, the “relative binding free energy” value is 0.27 kcal/mol.
On to TTGGGCACGTGCCGTT, for which the “relative binding free energy” value is -0.2 kcal/mol.
Next, TGTGGCACGTGGACCT: -0.05 kcal/mol; TGACGCACGTGTAGGT: -0.17 kcal/mol; TGTTGCACGTGTTCGT: 0.02 kcal/mol.
For AATATCACGTGTGGTC, the “relative binding free energy” value stood at 0.16 kcal/mol.
With TGGTCCACGTGGCGTG, the “relative binding free energy” value was -0.03 kcal/mol.
Turning to ACTTGCACGTGGGCGG, the “relative binding free energy” value was -0.16 kcal/mol.
As to ATTTACACGTGCTGGG, the “relative binding free energy” value came to 0.04 kcal/mol.
Turning to GGGGTCACGTGTTCAA, the “relative binding free energy” value turned out to be 0.31 kcal/mol.
With TGTGGCACGTGATTGA, the “relative binding free energy” value was 0.1 kcal/mol.
Turning to GTGATCACGTGTTCTT, the “relative binding free energy” value stood at 0.23 kcal/mol.
Next, TCCTGCACGTGGGGTT: -0.19 kcal/mol; CGGAGCACGTGGGTGG: -0.21 kcal/mol.
Take TTTGTCACGTGTCAAG: the “relative binding free energy” value was determined as 0 kcal/mol.
On to CGGGTCACGTGCTGAT, for which the “relative binding free energy” value came to 0.03 kcal/mol.
As for TGTCTCACGTGAAATT, the “relative binding free energy” value came to 0.32 kcal/mol.
Next, TTTGGCACGTGCGTTT: -0.15 kcal/mol; GAAGTCACGTGAGGGC: 0.15 kcal/mol.
TGATTCACGTGTGACA: the “relative binding free energy” value amounted to 0.37 kcal/mol.
As for TAAATCACGTGTATAT, the “relative binding free energy” value was determined as 0.07 kcal/mol.
With GGCGGCACGTGGGTTT the figure was -0.05 kcal/mol; with GTTTGCACGTGACGGA, 0.08 kcal/mol; with GGCGTCACGTGAGTTT, 0.36 kcal/mol.
TTGAACACGTGATATG: the “relative binding free energy” value was found to be 0 kcal/mol.
On to TTCTACACGTGTTGAG, for which the “relative binding free energy” value was 0.06 kcal/mol.
Next, CTTTTCACGTGTCAGG: 0.26 kcal/mol; GCTTGCACGTGGAGGT: 0.07 kcal/mol; CGTGTCACGTGTGCAT: 0.06 kcal/mol.
As to AGAAACACGTGGATGG, the “relative binding free energy” value was 0 kcal/mol.
Turning to ATCTTCACGTGGAGAG, the “relative binding free energy” value came to 0.29 kcal/mol.
On to GGGTACACGTGTCCGG, for which the “relative binding free energy” value worked out at 0.24 kcal/mol.
With TATTGCACGTGTACTG the figure was -0.01 kcal/mol.
Next, GTGATCACGTGTGGGC: 0.22 kcal/mol; ACGGGCACGTGGTTCT: -0.08 kcal/mol.
With TCATACACGTGGTGAG the figure was 0.03 kcal/mol; with ATTGTCACGTGATTAG, 0.3 kcal/mol.
With GTGTCCACGTGGATGT, the “relative binding free energy” value is -0.08 kcal/mol.
As for AGGTACACGTGTCGAT, the “relative binding free energy” value stood at 0.09 kcal/mol.
With CTGTGCACGTGAATGG the figure was 0.31 kcal/mol.
Next, GTTTACACGTGATATA: 0.25 kcal/mol.
With TCGTGCACGTGAGCGG the figure was 0.19 kcal/mol.
Turning to GATTTCACGTGTCGGT, the “relative binding free energy” value stood at 0.32 kcal/mol.
As to GATTTCACGTGGTTTT, the “relative binding free energy” value worked out at 0.34 kcal/mol.
In the case of CGTGTCACGTGGTTCA, the “relative binding free energy” value stood at 0.05 kcal/mol.
With GCAGTCACGTGGGGTT the figure was -0.02 kcal/mol.
Next, GGTGACACGTGGCAAT: 0.1 kcal/mol; GGCTTCACGTGGAGGT: 0.2 kcal/mol.
Regarding GGGTGCACGTGCACGT, the “relative binding free energy” value is -0.18 kcal/mol.
On to GGGGTCACGTGATGGT, for which the “relative binding free energy” value worked out at 0.38 kcal/mol.
Next, ATTCTCACGTGTGGAG: 0.15 kcal/mol.
With AGTGGCACGTGGCAGC the figure was -0.22 kcal/mol.

(Values after the BET-seq Pho4 binding data (Le et al. 2018).)
